± gives the standard deviation of the averaged measurements. The list shows a part of the results.

The subject of the test is PfAP2-I AP2 domain 3 (GST-tagged). Put plainly: gcPBM binding intensity (ln(normalized median fluorescence intensity)); higher = stronger DNA binding. The procedure, abridged:
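GST-fused DNA-binding domains of P. falciparum, expressed in E. coli, were applied at about 25 μg on average for 1 h to an Agilent 4 × 180k array of primer-extended double-stranded 36-bp intergenic genomic probes and negative controls. Binding intensity is the highest Masliner-normalised natural-log median intensity across replicate spots of either probe orientation, measured with Alexa488 anti-GST antibody and a 488 nm scan.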
Regarding “AAAAAATACAAACACACACACACACCCATATATATA [CACACA_site3560]”, the “gcPBM binding intensity (ln)” value amounted to 8.38 ± 0.47.
As to “TATGAATAAAAAAGAAGTACAAATTATATGAACGCA [XGTACX_site3018]”, the “gcPBM binding intensity (ln)” value came to 8.14 ± 0.52.
With “CATACTGTTATAAAATGTACGCATATACACACACAT [XGTACX_site7256]”, the “gcPBM binding intensity (ln)” value was 8.11 ± 0.37.
Next, “TTTTGTTTAATATTCACACATATATATTTTTTATTT [CACACA_site5496]”: 7.79 ± 0.52; CTTTTTATTTAGGAGGTGCATGTAATACGGAACATA: 9.8 ± 0.42.
As to “GGTAATTTCCTTTTTTGTACTCATAGAAGGATAATA [XGTACX_site89]”, the “gcPBM binding intensity (ln)” value is 7.83 ± 0.55.
With “TTTGAAATATTAAATGCATGTTAAAACATAAAAATG [TGCATGCA_site680]”, the “gcPBM binding intensity (ln)” value worked out at 7.91 ± 0.73.
For “TTTCTTCTTCTATTGTGTACGTAAAAAAAAAAAAAA [XGTACX_site772]”, the “gcPBM binding intensity (ln)” value came out at 8.31 ± 0.52.
Take “TGATAAAATGGGGAAATTCATTATATCATATCTTGG [CACACA_negctrl_site789]”: the “gcPBM binding intensity (ln)” value was 7.51 ± 0.64.
The result for “TTGGATAAAAAATATGTACACACATATAGATATCTA [CACACA_site8862]” reads 7.73 ± 0.33.
For “ATTATATTAAAATACACACCCAAATATTAAAAAGAT [CACACA_site5613]”, the “gcPBM binding intensity (ln)” value worked out at 8.46 ± 0.44.
In the case of TTTTTTTTTTGTTGAGTGCAATTATTTGTAAGAAAA, the “gcPBM binding intensity (ln)” value amounted to 10.1 ± 0.51.
The result for “AAATTAATATATAAAAGTACCCATATATTTAATATA [XGTACX_site3551]” reads 7.54 ± 0.45.
“TCAAAGCACCCATACACACACATATATATATATATA [CACACA_site4317]”: the “gcPBM binding intensity (ln)” value amounted to 9.91 ± 0.7.
The result for GTACGTTACATAAATGTGCACATATTATATGCGAAG reads 9.87 ± 0.24.
Take “GTCATATATATATGTACACACATATATATATTTATA [CACACA_site1459]”: the “gcPBM binding intensity (ln)” value worked out at 7.77 ± 0.28.
Next, “AGTTTGTTTTTTTTTTTTTTTTCCTGTCACAAACAA [CACACA_negctrl_site1093]”: 8.22 ± 0.62.
In the case of TCTCCACCTCTCTTGGTGCGTTATACCCTCGAGGCT, the “gcPBM binding intensity (ln)” value is 11.3 ± 0.54.
As for “TATAACAAAATATTCACACATATAAGTAAATAAAGG [CACACA_site5777]”, the “gcPBM binding intensity (ln)” value was 7.87 ± 0.57.
As to “AAGAAAAAAATTTAATTAAATGAAATTTTTGAATTA [TGCATGCA_negctrl_site25]”, the “gcPBM binding intensity (ln)” value was determined as 7.16 ± 0.57.
As to “AAGACTGCACTTTAAGCACACAAATATATTTTTTTT [CACACA_site8337]”, the “gcPBM binding intensity (ln)” value amounted to 9.88 ± 0.2.
“AAAGTGGCCATATATTTTTTTTTTTTTTTCCTTATT [CACACA_negctrl_site485]”: the “gcPBM binding intensity (ln)” value was 7.56 ± 0.69.
The result for “AAAAATAAAGGATATACACACTAATTATATATATAT [CACACA_site5550]” reads 8.845 ± 0.064.
Regarding “ATTATTATATTTATATGTACATAGAAAAAATTAAAT [XGTACX_site2058]”, the “gcPBM binding intensity (ln)” value turned out to be 7.91 ± 0.3.
Take “TCAGATATATATATATAAATATATATTTTGAAATGT [CACACA_negctrl_site686]”: the “gcPBM binding intensity (ln)” value was determined as 7.62 ± 0.47.
For “TAGTATCCAAGAAAAAGTACTTATTTTAATTTTTTA [XGTACX_site6243]”, the “gcPBM binding intensity (ln)” value was determined as 7.48 ± 0.18.
As for “AATATTTATAAAGACACACAAACAAAAAGGATAAAA [CACACA_site2985]”, the “gcPBM binding intensity (ln)” value was 8.13 ± 0.65.
In the case of “TCATTTAAGTAGACGCGTACGGAAATTACGAATCCT [XGTACX_site144]”, the “gcPBM binding intensity (ln)” value came to 7.54 ± 0.59.
Consider “TAATTTATGACACGCGCACACATATATATATAGTAA [CACACA_site4249]”, for which the “gcPBM binding intensity (ln)” value was 8.31 ± 0.26.
Take “AAAAATTATGGACACACACACATATATATATATATT [CACACA_site4717]”: the “gcPBM binding intensity (ln)” value amounted to 7.97 ± 0.45.
Take “GGTATACGCAAGTATACACACATATATATATATATA [CACACA_site3240]”: the “gcPBM binding intensity (ln)” value is 9.3 ± 0.35.
In the case of “AATAAAATAAAATACACACATACATACATACAAATG [CACACA_site2438]”, the “gcPBM binding intensity (ln)” value was 7.86 ± 0.49.
“AAAAACTAATCTTTAACATGCAACCGTTTATACATA [TGCATGCA_site363]”: the “gcPBM binding intensity (ln)” value came to 7.6 ± 0.75.
For “TGAGTTACATACTAATGTACACAACAAAAAAAAAAA [XGTACX_site2390]”, the “gcPBM binding intensity (ln)” value was determined as 8.04 ± 0.8.
For “AAAGGTTTATATGATACACACATAAGTGATCAGGTT [CACACA_site190]”, the “gcPBM binding intensity (ln)” value stood at 7.53 ± 0.75.
In the case of “TTTTTTTGAACATATACACACTCTAAACTTATACAT [CACACA_site3917]”, the “gcPBM binding intensity (ln)” value turned out to be 7.93 ± 0.46.
For the sequence “AAAAAAAAAAAAGGAGGTACACAATTTTATATATGC [XGTACX_site5296]”, the “gcPBM binding intensity (ln)” value was 7.85 ± 0.27.
For the sequence “ACAAGTCAGGCAAAAACATGCATTATTTGAACATTA [TGCATGCA_site864]”, the “gcPBM binding intensity (ln)” value is 7.92 ± 0.7.
“ACATTTTTTTCATATCGTACATATTATAATATTTTC [XGTACX_site6524]”: the “gcPBM binding intensity (ln)” value is 8.24 ± 0.62.
For the sequence “GAGCATTACCCATATACACACATATATATAAACCTA [CACACA_site2737]”, the “gcPBM binding intensity (ln)” value stood at 8.24 ± 0.44.
The result for TTTTGTTATTTTTTAGTGCATATAAAGGTTGTTAAG reads 10.7 ± 0.4; that for “TTTTGCAATAATGTTGCACACTAAATAGTCATCTAT [CACACA_site4304]”, 8.83 ± 0.47.
Consider “GTACGATAAAAAATTGGACAAAAAAAAAAAAAAAAT [XGTACX_negctrl_site158]”, for which the “gcPBM binding intensity (ln)” value was 7.66 ± 0.46.
On to “ATTTCATAAATTAAACGTACATAATACACACACATG [XGTACX_site4155]”, for which the “gcPBM binding intensity (ln)” value is 8.22 ± 0.26.

Source of the values: the supplement of paper PMC11417369.
